Source: ChEMBL document CHEMBL4888484, “Replenishing the malaria drug discovery pipeline: Screening and hit evaluation of the MMV Hit Generation Library 1 (HGL1) against asexual blood stage Plasmodium falciparum ,using a nano luciferase reporter read-out” (2022)
Hit rate of the full screen: of about 150,000 compounds, about 540 (0.36%) showed an effect of 50% or more. This is one part of the list.

The molecules below were run on Plasmodium falciparum (assay: Primary screen in NF54 nanoGlo assay, in single point, at 2uM, 72h; a lower Z score goes with more inhibition). Conditions: timepoint 72 hour.
Assay type: functional, Erythrocyte

Structure (SMILES)	% Inhibition	Z score
Cc1ccc(CNC(=O)[C@]2(C)CCCCC(=O)N2)cc1	-12%	1.32
OC[C@@H]1[C@@H](Cc2ccnc(-c3cccnc3)n2)[C@H](NCc2ccccc2F)C[C@H]1O	-6%	1.11
CC(=O)N(c1ccccc1)[C@H]1C[C@@H](C)N(C(=O)C(F)(F)F)c2ccccc21	38%	-1.27
Cc1ccccc1Cn1cnc2c1c(=O)n(CCc1ccccc1)c(=O)n2-c1ccc(Cl)cc1	-14%	1.71
Cc1ccccc1OCC(=O)Nc1cnn(C)c(=O)c1N1CCOCC1	-4%	0.73
C[C@H](Nc1ncnc2ncccc12)c1ccc(Cl)c(Cl)c1	-7%	1.22
Cn1cnnc1[C@H]1CCCN(c2ncncc2-c2ccccc2)C1	-14%	1.71
CCc1ccc(-c2nc(C)c(C(=O)N3CC[C@@H](N)C3)s2)cc1	-11%	1.8
CNC(=O)c1[nH]nc2c1CN(C(=O)c1ccc(OC)o1)CC2	-9%	1.13
c1c[nH]c(-c2cn(Cc3n[nH]c4c3CCCCC4)nn2)n1	-11%	1.27
CS(=O)(=O)c1ccc(-c2c(-c3ccccc3)ncn2Cc2ccon2)cc1	2%	-0.17
COc1ccc2c(c1)CN(C(=O)c1ccnn1C)[C@H](c1ccccc1)C2	2%	-0.22
CC(C)(C)OC(=O)NC[C@H]1CCN(C(=O)c2n[nH]c3ccccc23)C1	-4%	0.56
CCn1nccc1CNC(=O)N1CCC[C@H](C2CCCC2)C1	-3%	0.52
C[C@H](NC(=O)NC1(C(N)=O)CCCC1)c1cccc2ccccc12	-10%	1.03
O=S(=O)(Nc1noc(C2CC2)n1)c1c[nH]c(C(F)(F)F)c1	2%	-0.28
CC1CN(c2ccc3ccccc3n2)CC1N1CCOCC1 (stereo unspecified)	1%	-0.11
O=C(c1cc2ccccc2s1)N1C2CCC1CC(F)C2 (stereo unspecified)	-18%	2.12
O=C(O)Cc1ccc(-c2cccc3c2CCNC3)nc1	3%	-0.62
Cc1n[nH]c(C)c1CCn1cc(-c2cccc(C#N)c2)nn1	-5%	1.03
CC1c2ccccc2OC1C(=O)Nc1csc(-c2ccncc2)n1 (stereo unspecified)	-8%	1.15
Cc1ccc(F)cc1C(=O)Nc1ccc(O[C@H]2CCOC2)cc1	-5%	0.84
CC[C@@H](C(=O)NCc1ccco1)n1c(Cc2ccc(Cl)c(Cl)c2)nc2ccccc21	-5%	0.7
O=C(NCc1cn(-c2ccsc2)nn1)NCc1cccs1	11%	-1.78
COCCCNC(=O)N(C)Cc1ccc(OC)c(C)c1	-3%	0.41
O=C(Cn1ccc2ccccc2c1=O)N(CC(F)(F)F)C1CCC1	-7%	1.06
O=c1[nH]cc(-c2nc(Cc3cccc(Cl)c3)nn2CCO)cc1Cl	9%	-1.53

Structure (SMILES)	% Inhibition	Z score
Cn1ccc2c(-c3cncc(C(=O)N4CCCCC4)n3)ccnc21	9%	-1.18
c1ccc(-c2nc(-c3nccn3CCCn3cccn3)co2)cc1	-6%	0.81
CC(C)CNC(=O)c1cc2cc(NS(=O)(=O)c3ccc(C(C)(C)C)cc3)ccc2n1Cc1ccc(C(C)(C)C)cc1	2%	-0.24
CC(C)CC(C)OC(=O)N1CCC(c2nncn2C)C1 (stereo unspecified)	-11%	1.12
Cc1nnnn1CC(=O)NC[C@@H]1COc2ccccc2C1	-4%	0.49
CC[C@H](O)c1cc2n(n1)CCN(c1cc(C)nc3ccc(F)cc13)C2	-10%	2
CC(=O)Nc1cc(-c2nc(-c3ccc4c(c3)ncn4CCC(=O)N3CCCCCC3)no2)ccc1C	-20%	2.58
CCN1CCN(C2(C(=O)N3CCC[C@H](COC)C3)Cc3ccccc3C2)CC1	-12%	1.4
Cc1c(-c2ccccc2)n[nH]c1-c1nc(C(C)C)n[nH]1	-7%	0.84
CC1=CCC2COC(c3ccccn3)C1C2 (stereo unspecified)	-11%	1.43
CC(=O)NCCC(=O)Nc1cc(C)nn1[C@@H](C)C1CC1	0%	0.07
C[C@@H](CNC(=O)c1ccsc1)NC(=O)OC(C)(C)C	-1%	0.05
COC(CNC(=O)c1ccc(-n2cncn2)nn1)OC	-15%	1.89
CC(NC(=O)N[C@@H]1CCc2cc(F)ccc21)c1ccn(C)n1 (stereo partly specified)	1%	-0.22
O=C(NCC(F)F)c1ccc2c(c1)n(CC1CC1)c(=O)n2C1CCCCC1	26%	-3.33
COCCn1cc(N[C@@H](C)c2nnc(-c3ccc(C)cc3)o2)cn1	-4%	0.5
Cc1cccc(CN2CCC[C@@](O)(CNC(C)(C)c3ccccc3)C2=O)c1	-5%	0.57
NC(=O)c1ccc(-c2nc3c(c(=O)[nH]2)CCN(c2ncc(F)cn2)C3)cc1	-6%	0.56
CCc1nc(C)c([C@H](C)N(C)CCS(=O)(=O)CC)s1	3%	-0.48
CCOc1ccc(NC(=O)C2CCN(c3nc4nc[nH]c(=O)c4s3)CC2)cc1	-27%	2.35
Cc1cscc1C(=O)N1CCC2CCC(C1)N2C(C)C (stereo unspecified)	-7%	0.94
COc1ccc(CN2C[C@@H]3Oc4ncccc4C(=O)N(C)[C@@H]3C2)cc1	-3%	0.37
CN(Cc1nc(-c2ccccn2)no1)C[C@]1(O)CCCN2CCCC[C@@H]21	-5%	0.76
CN(C(=O)C1CCN(C2CCN(c3nc4ccccc4o3)CC2)CC1)[C@H]1CCOC1	-4%	0.66
CCC(C)N1C(=O)CCC1c1c(-c2cccc(OC)c2)n(C)c2ccccc12 (stereo unspecified)	35%	-3.99
CCCCn1nnnc1CN1C[C@H](C)c2ccccc21	-4%	0.49
